Test results taken from the supplement of paper PMC10126150.
Values marked as one replicate rest on one cluster of the flow cell; about a third of the high ones do not repeat.

Test system: ATP
Experiment: switch fluorescence ratio, 500 uM ATP over buffer (Cy3 cluster intensity, sum of 5 cycles each) (fold (ratio)); higher = stronger signal-on switching upon ATP binding; sequences stand for … in TCGTCGGCAGCGTCAGATGTGTATAAGAGACAGTTTTTTTTTTTTTTTTTTTTTTTTT…TC
Conditions: aptamer strand: ATP DNA aptamer (quencher-CACCTGGGGGAGTATTGCGGAGGAAGG + anchor), 100 nM annealed; ATP concentration: 500 uM; one replicate
How it was run: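 Clusters with intensities outside 100-1000 RFU were excluded. The remaining Cy3-labelled switching-strand clusters on a modified Illumina MiSeq flow-cell had been annealed to 100 nM quencher-labelled ATP aptamer and imaged in selection buffer, then after 15 min with 500 uM ATP at 22 °C, for five cycles separated by NaOH stripping and re-annealing. The fluorescence ratio, averaged per switch-domain sequence, is each cluster's summed target-cycle Cy3 intensity over its summed buffer-cycle Cy3 intensity.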
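Also: ATP exposure 15 min at 22 °C before imaging.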

TAGTAGTTCC
switch fluorescence ratio: 1.06

TATCTCTTGA
switch fluorescence ratio: 1.01

ACGGCTCCGC
switch fluorescence ratio: 1.51

AGCAACTACC
switch fluorescence ratio: 3.46

AAATCTACC
switch fluorescence ratio: 1.16

CCTGAACTTT
switch fluorescence ratio: 1.02

CTTGTGTCGT
switch fluorescence ratio: 1.01

ATATCACTTT
switch fluorescence ratio: 1

TTGGCGAGAA
switch fluorescence ratio: 0.988

CGGAGTGTT
switch fluorescence ratio: 1.76

CGGCGCTACT
switch fluorescence ratio: 3.03

CTCCAACGAG
switch fluorescence ratio: 1.13

CTAGGGCGAT
switch fluorescence ratio: 1.02

TTGCCCGATC
switch fluorescence ratio: 0.98

AGACTGGGGT
switch fluorescence ratio: 1.02

TGCTAGTGCG
switch fluorescence ratio: 1.01

GGTTATATAA
switch fluorescence ratio: 1.11

CCTCTCCGGG
switch fluorescence ratio: 1.54

CAGGGCCCAG
switch fluorescence ratio: 1.03

ATGCTGTTTC
switch fluorescence ratio: 0.982

GACGTTTACC
switch fluorescence ratio: 1.13

GCAGCGAAGC
switch fluorescence ratio: 0.983

TGGAGAAAAA
switch fluorescence ratio: 1.1

TACACGCC
switch fluorescence ratio: 1.04

TGACCGACTG
switch fluorescence ratio: 0.945

CTGAAGTATG
switch fluorescence ratio: 1.02

AGCTTGATAT
switch fluorescence ratio: 0.94

TGCAACAATT
switch fluorescence ratio: 0.982

CCTTCGTTTG
switch fluorescence ratio: 1.45

CTGCGTGGTG
switch fluorescence ratio: 1.03

GGTCCCAGGG
switch fluorescence ratio: 1.16

CGGGAACTAA
switch fluorescence ratio: 1.03

CGTCTGCAGG
switch fluorescence ratio: 1.12

GTGTGAGTCC
switch fluorescence ratio: 1.05

TATAGTGCGC
switch fluorescence ratio: 0.961

AGGGGAGCAT
switch fluorescence ratio: 0.953

AGTTTTCGGT
switch fluorescence ratio: 0.966

ATTGGGGAGT
switch fluorescence ratio: 1.01

TGTGGTACTT
switch fluorescence ratio: 0.954

CAGCACAGAG
switch fluorescence ratio: 1.05

TGGCCGGGAA
switch fluorescence ratio: 1.08

TAGGCATAGC
switch fluorescence ratio: 1.01

TTTGGGCATC
switch fluorescence ratio: 1.01

GTGTGACACA
switch fluorescence ratio: 0.961

TATGTCGAC
switch fluorescence ratio: 1.01

GGGAACGTGA
switch fluorescence ratio: 0.984

CGAAAAAAGT
switch fluorescence ratio: 1.01

CGACGTTGAT
switch fluorescence ratio: 1.12

GGATGTTCAG
switch fluorescence ratio: 0.995

TTATTATCCT
switch fluorescence ratio: 1.03

GACGGCACAC
switch fluorescence ratio: 1.29

TCGTATCTTA
switch fluorescence ratio: 1.01

TTTTCCCGTT
switch fluorescence ratio: 1.01

TCCATTGCGG
switch fluorescence ratio: 2.84

CGAGTCATCG
switch fluorescence ratio: 0.978

TGAATCACGG
switch fluorescence ratio: 1.03

TGGTGAGAAT
switch fluorescence ratio: 1.04

TATTTCGCAA
switch fluorescence ratio: 5.18

ATTGAGTCTT
switch fluorescence ratio: 1.01

GACTGCGTTA
switch fluorescence ratio: 0.996

GCATAAAGTC
switch fluorescence ratio: 0.968

TGGCCAAAA
switch fluorescence ratio: 0.982

TTCGCACATA
switch fluorescence ratio: 2.17

AATGGGTAT
switch fluorescence ratio: 0.965

TGCACTTCTT
switch fluorescence ratio: 0.955

TTCTACGCAG
switch fluorescence ratio: 1.13

CATACGGACA
switch fluorescence ratio: 1.57

AGTAGCAGGT
switch fluorescence ratio: 0.991

GTAGAGAAGG
switch fluorescence ratio: 1.01

CCATCGGATG
switch fluorescence ratio: 1.01

ATGGCCAGAG
switch fluorescence ratio: 0.945

CCGCTCGTTA
switch fluorescence ratio: 2.74

TTCAGACGTG
switch fluorescence ratio: 1.01

TTAGAAGTTC
switch fluorescence ratio: 0.963

GTTAACGGTT
switch fluorescence ratio: 0.991

CAAGGCAACG
switch fluorescence ratio: 0.966

TACGAGATTA
switch fluorescence ratio: 1.03

CCATTGATAG
switch fluorescence ratio: 1.02

TCGTCGACAT
switch fluorescence ratio: 1.02

ACTCGGGAGC
switch fluorescence ratio: 1.01

TCGGGCAGAA
switch fluorescence ratio: 1.02

GGACATACGG
switch fluorescence ratio: 1.06

CGGCTTTCGT
switch fluorescence ratio: 0.983

ATTGTTGGAG
switch fluorescence ratio: 0.974

TGTTCAAGGT
switch fluorescence ratio: 0.987
